The labels stand for the following.
B1: LINE1-mini (parent)
chain: GGCAGAGCUCAACACAGCGUGGCAAAGUGGCUGUGGCUAGACUGCC

The source gives no read counts; variants with many changes may rest on few reads.

Our source for the self-cleavage values is the RNAGym collection of RNA variant scans (doi:10.7554/elife.90254).

The data set covers variants of B1. As to the kind of experiment: self-cleavage, relative activity (ratio to wild type); higher = more cleavage; in vitro, sequencing; the parent is a self-cleaving ribozyme.
Regarding C8U C23U U32G, the self-cleavage worked out at 0.16.
As for C8U G33U U43C, the figure is 0.01.
For C8G U9A C18U A39C the value was 0.21; for C8U C31A U43A G44U C45U, 0.27.
For C8U C13U G19U U20A the value was 0.84; for C8U G17A G33U U34A C37G, 0.02.
For the variant C8G A14C G17A G27C C46U, the self-cleavage was determined as 0.07.
For C8G C31U G33U the value was 0.06.
As for C8G G22U C23A A41U, the figure is 0.19; as for C8U A11U C23G, 0.01; as for C8G C10U U32A G35C A41G C42U, 0.04.
As to C8G A12U G44U, the self-cleavage turned out to be 0.02.
On to U9A A11G G17C G27U G35U G44U, for which the self-cleavage worked out at 0.
As to C8G G21C G29C C37G A39C, the self-cleavage turned out to be 0.01.
As for C8U A11G C13U A16G G27A, the figure is 0.03.
As for C8G C13A C23U C37G, the figure is 0.11; as for C8U A16G C42U U43G G44U, 0.09.
As for C8U C13U A14G U28G C31U, the figure is 0.13; as for U9A A12C G36U, 0.01; as for C8U G17A C18G G19U G22A G35U A41C, 0.02.
Turning to C8G C18A G21U A25G C31G C45A, the self-cleavage was found to be 0.01.
Regarding C8U G19C C45A, the self-cleavage worked out at 0.05.
Regarding C8U U20A C42U, the self-cleavage turned out to be 0.34.
For C8U C10U A39G G40A the value was 0.01.
As for C8G C10U A26C, the figure is 0.03; as for C8U G29A C45A C46G, 0.03.
For the variant C8G U34G C45A, the self-cleavage was 0.04.
For C8G U32G G44U the value was 0.07; for C8U C23U A24G, 0.02; for C8U G19C G44C, 0.04.
For C8U A11C C13U C31U U32G G35U the value was 0.03.
As for C8U A12U G29A G35C U43A, the figure is 0.27; as for C8G C13G G17A U28C G36U, 0.05.
On to C8G A14C G17U G22U G40C, for which the self-cleavage came out at 0.01.
As for C8G A25G U34G, the figure is 0.02; as for C8U C10A A11C, 0.04.
C8U C15G G36A A39C: the self-cleavage came to 0.03.
For C8G C13U G35U the value was 0.29; for C8U U20A C23A A24G U38A, 0.02.
As for C8G C10G U34A C42U, the figure is 0.01.
As for C8U C13U G27C U28C, the figure is 0.38.
Take C8G C13G C15U C37U G40C A41G: the self-cleavage amounted to 0.14.
For C8G U9A C10A A25G C46U the value was 0.01.
For C8U U34C C46U the value was 0.03; for C8U U28G C45A, 0.13.
For C8U G22C C45G, the self-cleavage stood at 0.03.
For C8G G19U C42G the value was 0.02.
For C8U G29U A39U C42A the value was 0.14.
For the variant C8G A12U C18U U43A, the self-cleavage came out at 0.
C8G U28C G40A: the self-cleavage is 0.09.
C8G A16G C37U: the self-cleavage turned out to be 0.11.
Consider C8G C13U A16C U38G, for which the self-cleavage came to 0.04.
As for C8G C10U G35C C46U, the figure is 0.02.
For C8G G17C A24U G33U the value was 0.03; for C8U G27C C31A G33U C45U, 0.33.
As for C8U C15G U32C G44A, the self-cleavage stood at 0.14.
Take C8U A14U U34A: the self-cleavage came to 0.15.
As for C8G C13A A25G, the figure is 0.09; as for C8G U9G A12C, 0.03.
For C8U A11U C15U C18G A25G A26C the value was 0; for C8G U20A C23U A24U, 0.08; for C8U C13U C18U C23U G29U C45U, 0.25.
As for C8U C10A A39U, the figure is 0.03.
Regarding C8U A11U C15A C23G C42A, the self-cleavage is 0.04.
As for C8G A14G A16G A25G G40U, the figure is 0.
Turning to C8G C15A C46U, the self-cleavage was 0.02.
For C8G C18U G29U U43G the value was 0.03.
As for C8G U9C C23G A25C G33U, the figure is 0.02; as for C8G C15A C23A, 0.01.
For the variant C8G A14C G27U A41G C46U, the self-cleavage came to 0.04.
As for C8U C23A A26U G36C, the figure is 0.04; as for C8G C15A G19U, 0.01.
With C8U G30U G33C G35C A41C, the self-cleavage is 0.05.
With C8G G35U C37G, the self-cleavage stood at 0.02.
On to C8U A41G G44A, for which the self-cleavage came out at 0.04.
As for C8G C42U C46G, the figure is 0.06; as for C8G G27A G40C C46A, 0.01.
For C8G C13U G21U G35U the value was 0.43; for C8U G22A A41C, 0.07.
For C8G A14C G27U G36C the value was 0.03.
Regarding C8U U38G A39G, the self-cleavage came to 0.2.
For C8U C10A C13A A14C G17A U20G the value was 0.01; for C8U A41U C45A, 0.35; for C8G U9A C45U, 0.05.
For C8U A11G C42A the value was 0.01; for C8G A26G G35A, 0.09.
On to C8U A11G G40A, for which the self-cleavage amounted to 0.02.
For C8U C18G A24C A39G C42G, the self-cleavage was 0.06.
As for C8U G33A G36U, the figure is 0.1; as for C8U G33A G36C, 0.06.
As to C8G U32A U38A C42G, the self-cleavage was 0.03.
For C8U U20G C31A the value was 0.01.
For C8G G17C G21U the value was 0.24; for C8U C10U A26G, 0.08.
As for C8G G21C C46U, the figure is 0.07; as for C8G A12U G40U A41U C42U, 0.02.
As for C8U C10U G17U U28G G33A, the self-cleavage was determined as 0.04.
As for C8G G19A A39U, the figure is 0.18; as for C8G C31A U38G, 0.
Consider C8G G36U U38C, for which the self-cleavage was found to be 0.01.
For the variant C8U C18A G40U U43G, the self-cleavage stood at 0.09.
With C8U C15G A26U, the self-cleavage came to 0.02.
For the variant C8U G17U A24C G35C G36C, the self-cleavage came to 0.02.
For C8U G21C C23U A24G A25G C46U the value was 0.26; for C8U G29C G44A, 0.12.
Consider C8G A26C C37U, for which the self-cleavage worked out at 0.03.
As for C8G G40A A41U, the figure is 0.11.
For C8U U9A A16G C31U U34C the value was 0.05; for C8G C18A A26C G36U A41U C42G, 0.04; for C8G C31U A41U, 0.04.
As for U9A A11U A26G G30A, the figure is 0.02; as for C8U A26U G40A, 0.2.
Regarding C8U U20G A24C, the self-cleavage turned out to be 0.1.
Turning to U9A A12U C13A G36C, the self-cleavage turned out to be 0.09.
In the case of C8U A24U U38G C42U, the self-cleavage was found to be 0.11.
For C8G G27U U43G C46U the value was 0.01.
As for C8U C13A A26C, the self-cleavage is 0.04.
For the variant C8U C10A A16C G19U, the self-cleavage was determined as 0.02.
As for C8G A12U A26U, the figure is 0.15; as for C8G G21C C23G, 0.03; as for C8G C15A G22U C31U U38A U43A, 0.01.
On to C8U C15A U20G C23A C31U U32C, for which the self-cleavage came out at 0.02.
Turning to C8G G17A G19U C45G, the self-cleavage was determined as 0.05.
C8G C10A A11C C37U U43A: the self-cleavage is 0.
For C8U U9A C15A C31U the value was 0.52.
For C8U A14C C23A C42A the value was 0.22; for C8U U9A A25C, 0.19.
As for C8U C18A C31A A41U, the self-cleavage stood at 0.08.
As for C8U G21U G27A G36C, the figure is 0.94.
For the variant C8G C10U U38G A41G C42U, the self-cleavage came out at 0.04.
As to C8U C37G U38C, the self-cleavage is 0.16.
As to C8G C13G C18A, the self-cleavage turned out to be 0.03.
On to C8U A26U G29A, for which the self-cleavage came out at 0.03.
As for C8U C13A C46G, the figure is 0.3; as for U9A A11U G35U, 0.04.
Consider C8G G17A C18G U28G A39U, for which the self-cleavage was 0.05.
With C8U A16U A25U, the self-cleavage was 0.04.
For C8G C15A G27C G33A the value was 0.02; for C8U G19C G21C, 0.01; for C8U C10A C23U G30C G40C, 0.01.
As for C8U A11U A14C C15U U32G, the figure is 0; as for C8G G17C U32C G33C G40A, 0.01; as for C8G A12U C15A G40A U43C, 0.02.
As for C8G A12U G36C, the figure is 0.13.
Turning to C8G U32A A41U, the self-cleavage is 0.01.
As to C8U U20A C46U, the self-cleavage was determined as 0.06.
For C8G U9G A41C U43C the value was 0.01.
Take C8G G19C G30C: the self-cleavage came to 0.28.
For C8U U9G G36C, the self-cleavage is 0.25.
In the case of C8U C15G G30U, the self-cleavage amounted to 0.04.
In the case of C8U G22U G36A, the self-cleavage was 0.56.
Turning to C8G G21U G22A, the self-cleavage is 0.1.
As for C8U C13U G29A G40C G44C, the figure is 0.06; as for C8U C10U A16C, 0.03.
On to C8U C31G U32A G36U, for which the self-cleavage was determined as 0.27.
As for C8G C23A C42G, the self-cleavage was found to be 0.03.
For C8G A25U G35A C37U G44U the value was 0.01; for C8U U38C G40C C45A, 0.07; for C8U C23G C42G, 0.08.
As for C8U C10U A14G G35C A41G, the figure is 0.01; as for C8G G27C G29U, 0.15.
As for C8G G30U C31G, the figure is 0.01.
With C8G A14G C15A G35A, the self-cleavage is 0.08.
For U9A A11G G29U, the self-cleavage came to 0.08.
As for C8G C15A A25U, the figure is 0.37.
Regarding C8G C37G C45G, the self-cleavage came out at 0.03.
As for C8U A26C G30A, the figure is 0.69.
